Experimental data as given in PubChem BioAssay (NCI).
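The compound was tested at five concentrations on cells cultured in 96-well plates, with a 48-hour exposure period. TGI: total growth inhibition.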

System: NCI-H322M lung
Assay: growth of human tumour cells (NCI), 48 h

Structure (SMILES)	TGI
O=C(O)CCC(NC(=O)c1ccc(Nc2nc3ccccc3nc2C(=O)O)cc1)C(=O)O (configuration not stated)	> 100 µM
CCCCN(CCCC)C(=O)C(=O)CC(=O)c1ccc(Br)cc1	> 100 µM
